Results as given in the supplement of paper PMC3334620.
Over roughly 33,000 sequences, “E-score (-0.5 to 0.5)” has its median near -0.056; the highest 2% begin near 0.38. This is one part of the list.

Target: Stb4 (UniProt P50104)
Assay: PBM E-score (8-mer binding enrichment) (E-score (-0.5 to 0.5)); higher = stronger / more preferred TF binding; most listed sequences are background and not binding sites
Settings: protein concentration: 200 nM; construct: GST-DNA-binding domain
Description: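 Universal 'all 10-mer' protein binding microarrays (Agilent AMADID 015681) probed with GST-tagged S. cerevisiae TFs (full-length or DBD) made by in vitro transcription/translation (PURExpress), about 100-200 nM. Bound TF was detected with fluorescent anti-GST. Each ungapped 8-mer (which stands for itself and its reverse complement) is scored by the PBM enrichment score (E-score), a modified Wilcoxon-Mann-Whitney statistic from -0.5 to +0.5, computed with the Universal PBM Analysis Suite. Scale: above 0.35 generally sequence-specific binding.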

Sequence | PBM E-score
CGCCTTGC | -0.128
AGGATTTG | -0.26
TGACGTAA | -0.165
CCGTCTGA | -0.0369
CCGTTTGA | -0.0251
ACTTAAGA | -0.0287
ACAATAGC | -0.199
GTGCGGCA | 0.112
CCGTAACG | 0.0401
TCAGGAGA | -0.225
GGAGAGCC | -0.0678
AACGTGTC | 0.0378
GAGGTAAA | 0.0411
GAGGGAAC | 0.0772
ACGGTATA | 0.0698
ATCCTGCC | -0.0122
ACGTTGGG | -0.262
GCTTACAC | -0.157
CCGCTCAC | -0.0195
GGAACAAC | 0.219
ATAGACGA | -0.209
CCATGAAG | -0.00665
GCGCGCCC | -0.0608
GCGCACTA | -0.124
CTACAACA | -0.192

Sequence | PBM E-score
ACTATTGC | -0.0334
AAGTGAAA | -0.0829
AGGATGTC | -0.0723
GAAACATA | 0.0521
CTGGCGGA | 0.0779
CGATGACA | 0.049
CTAGCCCA | -0.248
ATCAGCTA | -0.257
CGCTCACA | -0.15
AGGACCTG | -0.103
AGTTCAGA | -0.188
CCTATAGG | -0.0469
CTTGCTGA | -0.154
CACCGCCC | 0.145
CGCGAGTC | -0.034
CGAGTGTA | 0.0256
ACACGGAT | 0.372
CTAGGACA | -0.112
ACAATACT | 0.0347
AAGCTTCA | -0.0472
CTTAATCA | -0.0261
ACGACATA | -0.29
AACGTTGC | 0.0148
AGCAGCGA | -0.102
GCAAACCC | 0.152

Sequence | PBM E-score
GTAAGGGA | -0.0531
AAACGGGT | 0.201
ACTTGCCT | -0.0836
CACGAAGC | -0.141
GATGCGAC | 0.0109
GTTTCCCA | -0.0576
AAAATTCC | 0.165
CGCGGCAC | 0.166
GTGGCGAA | 0.0896
GAACAGCA | 0.0106
ACAGTCGT | -0.0477
CCGAGGAC | 0.371
GAAACGTA | 0.0657
ATGACAAC | 0.0244
AAGCGACT | -0.145
GCTCAACA | -0.105
TGCATAAA | -0.0897
AAGACTCT | -0.224
GGTTGTCA | -0.00772
AGGACCTC | -0.198
GCATTTGA | -0.0256
ACTTCGTC | 0.0446
AGTTCCGA | 0.474
ACGGGGTA | -0.047
CCGACTTC | 0.289

Sequence | PBM E-score
CCTTAACA | -0.317
AGGGGATA | -0.24
CCGCAATC | 0.185
AGAGTCTC | -0.0128
ATTTAGTG | -0.0726
AGGTGTAT | -0.0407
ATGATATA | -0.146
CTACTCCC | 0.0363
CGTAAACG | 0.0148
CTTGGGAC | -0.15
ATAGCACA | -0.0242
ACGGTTAC | 0.163
ATACAAAT | 0.151
TAATAGCA | -0.255
CGATGAAG | -0.0156
ATCTTCCG | 0.436
ACCGATCT | 0.204
AAGCATCG | 0.0371
AGACGAAT | -0.215
ATTTCTTA | 0.00967
GCCCCCGA | 0.214
ACTGTTGG | -0.15
CTACTAGA | -0.097
CCCTTTAG | -0.413
CTAACCAG | -0.125

Sequence | PBM E-score
CAAATATG | -0.00501
AAGACGAA | -0.171
ATCTCTCC | -0.0875
TAATGCAA | -0.26
AAACAGGA | -0.0855
GCCAACGC | -0.192
GATCAATC | 0.0474
CAGCGCTG | -0.0064
CCGTAGGA | -0.0768
GACCGCCC | 0.12
ACCGTTTC | 0.132
CTACCGTA | 0.0709
AAGTCTGT | -0.285
CGGGTTGC | 0.107
CCGACAGC | 0.226
ATACGAAG | -0.0224
AAATAAAC | 0.0562
CGGATCGC | 0.361
GGACGGCA | 0.217
GTGTGACA | -0.127
CGTGGCCA | -0.199
CCATTTTA | 0.0607
GGAAGGCA | 0.0907
AATGCGCC | 0.139
ATTTCTCC | 0.129

Sequence | PBM E-score
AACTTTCT | 0.0507
ATAGTAGC | 0.0449
ATCGCCGC | -0.0565
GTCCGCGA | 0.113
AAGGTGCC | 0.0178
ACGGCTTC | 0.0487
GAGAATGA | -0.0884
GTTGATAA | -0.166
GGCCTCCA | -0.12
CGACCACG | 0.0297
CTGCAGCC | 0.0108
AAGCTGAA | -0.00862
GGAGCACC | 0.0264
ATCGAGTG | 0.0369
ACTTGCCG | 0.279
CTGACAAC | -0.154
AGTATGGC | 0.00537
ATCAGGAC | -0.194
AGGTTTCG | 0.0127
CTTCGTCC | -0.138
GAGCGGTA | -0.00363
ACAAAAGA | 0.0966
TAAAGCGA | -0.0633
ATGGGTAC | -0.287
CACGATGC | -0.134

Sequence | PBM E-score
AGTTTAGG | -0.238
AACCATCT | -0.118
TCTTGTCA | -0.233
AACGTCCG | 0.182
GATCACTA | 0.0137
CGATAATA | 0.134
TAAATTTA | 0.128
AGTCCGCA | 0.025
CGTCCGTC | 0.0154
TGGTGTAA | -0.148
AAACTACG | 0.0415
AACTAAAA | 0.0244
CACTCCCA | -0.323
CGCATGAG | -0.261
AACGTATA | -0.226
ATTCGTCG | 0.0475
ATTACAAT | -0.188
CCCCTCGC | -0.157
AATGCAGA | -0.0762
CGTTCGAA | -0.0669
GCTGATAA | 0.131
GGACTACA | 0.0207
CGGAAAAC | 0.37
CATAGATC | -0.208
ACGCAACA | -0.0435

Sequence | PBM E-score
GATCACCA | -0.056
CTCAGCAC | -0.051
CACCAGCA | -0.143
ATGGCTGG | -0.193
ACATCCGT | 0.348
CCGGGGTC | 0.288
ATCAAGGC | -0.111
TACGCGTA | -0.119
GTGGAGAA | -0.184
CCTTCGCA | -0.236
GCTACCTA | 0.0157
GTTCCCTA | -0.00442
ACTACGAA | -0.184
GTGATGCA | -0.0269
AAACGGCC | 0.151
CCTGGAAA | -0.107
CGGGTTGA | 0.212
AGACCGCC | -0.153
ATCACCAA | -0.232
CCCGGACG | 0.163
ATCCCACC | 0.202
CGCATTTA | 0.037
CCCAGAGG | -0.237
ATCCGAAG | 0.48
AGGCGCAA | -0.0602

Sequence | PBM E-score
TTCCGCAA | 0.308
ATATCCCG | 0.306
CTCAGATA | -0.00864
AACTTCGA | -0.11
AAGTATGT | -0.23
CTTATTGC | -0.262
CAGGCGCA | -0.235
AATAACAT | 0.113
AGAACGTG | -0.0529
CGGTGGGC | 0.00684
CAACCTTG | -0.234
AGCAGTGC | -0.162
TTGCGCAA | -0.218
TAGGCGGA | 0.235
TAGGGTCA | -0.169
ACATCGAC | -0.0835
AATTTACT | -0.138
GTAACATA | 0.0921
CCACTATC | -0.00318
